# The supplement of paper PMC8728848
# Some of the results follow.
# B1: Als3-2 (Candida albicans) (protein)
# chain: KTITGVFNSFNSLTWSNAATYNYKGPGTPTWNAVLGWSLDGTSASPGDTFTLNMPCVFKFTTSQTSVDLTAHGVKYATCQFQAGEEFMTFSTLTCTVSNTLTPSIKALGTVTLPLAFNVGGTGSSVDLEDSKCFTAGTNTVTFNDGGKKISINVDFERSNVDPKGYLTD
# Tests used:
# Test in all cases: glycan array binding signal (z-score within array); higher = stronger binding
# Conditions in all cases: glycan notation: IUPAC condensed, linker removed
# GlcNAc(b1-3)Man = target: GlcNAc(b1-3)Man
# Outline: (§1)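 Negative Z-scores can be read as non-binding. The Z-score is calculated within each array and then averaged across arrays of one protein sequence at different concentrations or buffers and across linkers. Arrays, 3228 in all, were curated from the Consortium for Functional Glycomics database and kept only where the protein sequence was available.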
# [1] = target: GlcNAc(b1-3)[GlcNAc(b1-4)][GlcNAc(b1-6)]GlcNAc
# Outline: as §1
# [2] = target: GlcNAc(b1-3)[GlcNAc(b1-6)]Gal(b1-4)GlcNAc
# Outline: as §1
# [3] = target: GlcNAc(b1-3)[GlcNAc(b1-6)]GalNAc
# Outline: as §1
# [4] = target: GlcNAc(b1-4)Gal(b1-4)GlcNAc
# Outline: as §1
# GlcNAc(b1-4)GlcNAc = target: GlcNAc(b1-4)GlcNAc
# Outline: as §1
# [5] = target: GlcNAc(b1-4)GlcNAc(b1-4)GlcNAc
# Outline: as §1
# [6] = target: GlcNAc(b1-4)GlcNAc(b1-4)GlcNAc(b1-4)GlcNAc(b1-4)GlcNAc
# Outline: as §1
# [7] = target: GlcNAc(b1-4)GlcNAc(b1-4)GlcNAc(b1-4)GlcNAc(b1-4)GlcNAc(b1-4)GlcNAc
# Outline: as §1
# [8] = target: GlcNAc(b1-4)[GlcNAc(b1-6)]GalNAc
# Outline: as §1
# [9] = target: GlcNAc(b1-6)Gal(b1-4)GlcNAc
# Outline: as §1
# GlcNAc(b1-6)GalNAc = target: GlcNAc(b1-6)GalNAc
# Outline: as §1
# [10] = target: GlcNAc6S(b1-3)Gal(b1-4)GlcNAc
# Outline: as §1
# Kdn(a2-3)Gal(b1-3)GalNAc = target: Kdn(a2-3)Gal(b1-3)GalNAc
# Outline: as §1
# Kdn(a2-3)Gal(b1-3)GlcNAc = target: Kdn(a2-3)Gal(b1-3)GlcNAc
# Outline: as §1
# Kdn(a2-3)Gal(b1-4)Glc = target: Kdn(a2-3)Gal(b1-4)Glc
# Outline: as §1
# Kdn(a2-3)Gal(b1-4)GlcNAc = target: Kdn(a2-3)Gal(b1-4)GlcNAc
# Outline: as §1
# [11] = target: Kdn(a2-3)Gal(b1-4)[Fuc(a1-3)]GlcNAc
# Outline: as §1
# Kdn(a2-6)Gal(b1-4)GlcNAc = target: Kdn(a2-6)Gal(b1-4)GlcNAc
# Outline: as §1
# [12] = target: Man(a1-2)Man(a1-2)Man(a1-3)Man
# Outline: as §1
# [13] = target: Man(a1-2)Man(a1-2)Man(a1-6)[Man(a1-3)]Man
# Outline: as §1
# Man(a1-2)Man(a1-3)Man = target: Man(a1-2)Man(a1-3)Man
# Outline: as §1
# [14] = target: Man(a1-2)Man(a1-3)[Man(a1-2)Man(a1-6)]Man
# Outline: as §1
binder,measurement,setting,value
B1,glycan array binding signal (z-score),GlcNAc(b1-3)Man,-0.637
same,glycan array binding signal (z-score),[1],-0.516
same,glycan array binding signal (z-score),[2],-0.666
same,glycan array binding signal (z-score),[3],0.124
same,glycan array binding signal (z-score),[4],0.049
same,glycan array binding signal (z-score),GlcNAc(b1-4)GlcNAc,0.531
same,glycan array binding signal (z-score),[5],-0.338
same,glycan array binding signal (z-score),[6],-0.045
same,glycan array binding signal (z-score),[7],0.677
same,glycan array binding signal (z-score),[8],-0.507
same,glycan array binding signal (z-score),[9],1.94
same,glycan array binding signal (z-score),GlcNAc(b1-6)GalNAc,0.471
same,glycan array binding signal (z-score),[10],0.648
same,glycan array binding signal (z-score),Kdn(a2-3)Gal(b1-3)GalNAc,-0.017
same,glycan array binding signal (z-score),Kdn(a2-3)Gal(b1-3)GlcNAc,-0.695
same,glycan array binding signal (z-score),Kdn(a2-3)Gal(b1-4)Glc,-0.075
same,glycan array binding signal (z-score),Kdn(a2-3)Gal(b1-4)GlcNAc,-0.528
same,glycan array binding signal (z-score),[11],0.485
same,glycan array binding signal (z-score),Kdn(a2-6)Gal(b1-4)GlcNAc,-0.54
same,glycan array binding signal (z-score),[12],1.73
same,glycan array binding signal (z-score),[13],-0.461
same,glycan array binding signal (z-score),Man(a1-2)Man(a1-3)Man,-0.511
same,glycan array binding signal (z-score),[14],-0.687
